The list shows a part of the results. Binding of human transcription factors and regulators to the viral nucleoprotein by AlphaScreen, crude cell-free proteins, amounts not normalised, one pass. Fold of the Venus control; higher = more signal. No active / inactive call. Single-pass screen; sequences are the whole Swiss-Prot entries looked up by name.

The chains are these.
B1: ETV2, O00321 (protein)
chain: MDLWNWDEASPQEVPPGNKLAGLEGAKLGFCFPDLALQGDTPTATAETCWKGTSSSLASFPQLDWGSALLHPEVPWGAEPDSQALPWSGDWTDMACTAWDSWSGASQTLGPAPLGPGPIPAAGSEGAAGQNCVPVAGEATSWSRAQAAGSNTSWDCSVGPDGDTYWGSGLGGEPRTDCTISWGGPAGPDCTTSWNPGLHAGGTTSLKRYQSSALTVCSEPSPQSDRASLARCPKTNHRGPIQLWQFLLELLHDGARSSCIRWTGNSREFQLCDPKEVARLWGERKRKPGMNYEKLSRGLRYYYRRDIVRKSGGRKYTYRFGGRVPSLAYPDCAGGGRGAETQ
B2: AFF4, Q9UHB7 (protein)
chain: MNREDRNVLRMKERERRNQEIQQGEDAFPPSSPLFAEPYKVTSKEDKLSSRIQSMLGNYDEMKDFIGDRSIPKLVAIPKPTVPPSADEKSNPNFFEQRHGGSHQSSKWTPVGPAPSTSQSQKRSSGLQSGHSSQRTSAGSSSGTNSSGQRHDRESYNNSGSSSRKKGQHGSEHSKSRSSSPGKPQAVSSLNSSHSRSHGNDHHSKEHQRSKSPRDPDANWDSPSRVPFSSGQHSTQSFPPSLMSKSNSMLQKPTAYVRPMDGQESMEPKLSSEHYSSQSHGNSMTELKPSSKAHLTKLKIPSQPLDASASGDVSCVDEILKEMTHSWPPPLTAIHTPCKTEPSKFPFPTKESQQSNFGTGEQKRYNPSKTSNGHQSKSMLKDDLKLSSSEDSDGEQDCDKTMPRSTPGSNSEPSHHNSEGADNSRDDSSSHSGSESSSGSDSESESSSSDSEANEPSQSASPEPEPPPTNKWQLDNWLNKVNPHKVSPASSVDSNIPSSQGYKKEGREQGTGNSYTDTSGPKETSSATPGRDSKTIQKGSESGRGRQKSPAQSDSTTQRRTVGKKQPKKAEKAAAEEPRGGLKIESETPVDLASSMPSSRHKAATKGSRKPNIKKESKSSPRPTAEKKKYKSTSKSSQKSREIIETDTSSSDSDESESLPPSSQTPKYPESNRTPVKPSSVEEEDSFFRQRMFSPMEEKELLSPLSEPDDRYPLIVKIDLNLLTRIPGKPYKETEPPKGEKKNVPEKHTREAQKQASEKVSNKGKRKHKNEDDNRASESKKPKTEDKNSAGHKPSSNRESSKQSAAKEKDLLPSPAGPVPSKDPKTEHGSRKRTISQSSSLKSSSNSNKETSGSSKNSSSTSKQKKTEGKTSSSSKEVKEKAPSSSSNCPPSAPTLDSSKPRRTKLVFDDRNYSADHYLQEAKKLKHNADALSDRFEKAVYYLDAVVSFIECGNALEKNAQESKSPFPMYSETVDLIKYTMKLKNYLAPDATAADKRLTVLCLRCESLLYLRLFKLKKENALKYSKTLTEHLKNSYNNSQAPSPGLGSKAVGMPSPVSPKLSPGNSGNYSSGASSASASGSSVTIPQKIHQMAASYVQVTSNFLYATEIWDQAEQLSKEQKEFFAELDKVMGPLIFNASIMTDLVRYTRQGLHWLRQDAKLIS
B3: ZNF134, P52741 (protein)
chain: MTLVTAGGAWTGPGCWHEVKDEESSSEQSISIAVSHVNTSKAGLPAQTALPCDICGPILKDILHLDEHQGTHHGLKLHTCGACGRQFWFSANLHQYQKCYSIEQPLRRDKSEASIVKNCTVSKEPHPSEKPFTCKEEQKNFQATLGGCQQKAIHSKRKTHRSTESGDAFHGEQMHYKCSECGKAFSRKDTLVQHQRIHSGEKPYECSECGKAFSRKATLVQHQRIHTGERPYECSECGKTFSRKDNLTQHKRIHTGEMPYKCNECGKYFSHHSNLIVHQRVHNGARPYKCSDCGKVFRHKSTLVQHESIHTGENPYDCSDCGKSFGHKYTLIKHQRIHTESKPFECIECGKFFSRSSDYIAHQRVHTGERPFVCSKCGKDFIRTSHLVRHQRVHTGERPYECSECGKAYSLSSHLNRHQKVHTAGRL
B4: REL, Q04864 (protein)
chain: MASGAYNPYIEIIEQPRQRGMRFRYKCEGRSAGSIPGEHSTDNNRTYPSIQIMNYYGKGKVRITLVTKNDPYKPHPHDLVGKDCRDGYYEAEFGQERRPLFFQNLGIRCVKKKEVKEAIITRIKAGINPFNVPEKQLNDIEDCDLNVVRLCFQVFLPDEHGNLTTALPPVVSNPIYDNRAPNTAELRICRVNKNCGSVRGGDEIFLLCDKVQKDDIEVRFVLNDWEAKGIFSQADVHRQVAIVFKTPPYCKAITEPVTVKMQLRRPSDQEVSESMDFRYLPDEKDTYGNKAKKQKTTLLFQKLCQDHVETGFRHVDQDGLELLTSGDPPTLASQSAGITVNFPERPRPGLLGSIGEGRYFKKEPNLFSHDAVVREMPTGVSSQAESYYPSPGPISSGLSHHASMAPLPSSSWSSVAHPTPRSGNTNPLSSFSTRTLPSNSQGIPPFLRIPVGNDLNASNACIYNNADDIVGMEASSMPSADLYGISDPNMLSNCSVNMMTTSSDSMGETDNPRLLSMNLENPSCNSVLDPRDLRQLHQMSSSSMSAGANSNTTVFVSQSDAFEGSDFSCADNSMINESGPSNSTNPNSHGFVQDSQYSGIGSMQNEQLSDSFPYEFFQV
B5: NEUROG2, Q9H2A3 (protein)
chain: MFVKSETLELKEEEDVLVLLGSASPALAALTPLSSSADEEEEEEPGASGGARRQRGAEAGQGARGGVAAGAEGCRPARLLGLVHDCKRRPSRARAVSRGAKTAETVQRIKKTRRLKANNRERNRMHNLNAALDALREVLPTFPEDAKLTKIETLRFAHNYIWALTETLRLADHCGGGGGGLPGALFSEAVLLSPGGASAALSSSGDSPSPASTWSCTNSPAPSSSVSSNSTSPYSCTLSPASPAGSDMDYWQPPPPDKHRYAPHLPIARDCI
B6: ESRRB, O95718 (protein)
chain: MSSDDRHLGSSCGSFIKTEPSSPSSGIDALSHHSPSGSSDASGGFGLALGTHANGLDSPPMFAGAGLGGTPCRKSYEDCASGIMEDSAIKCEYMLNAIPKRLCLVCGDIASGYHYGVASCEACKAFFKRTIQGNIEYSCPATNECEITKRRRKSCQACRFMKCLKVGMLKEGVRLDRVRGGRQKYKRRLDSESSPYLSLQISPPAKKPLTKIVSYLLVAEPDKLYAMPPPGMPEGDIKALTTLCDLADRELVVIIGWAKHIPGFSSLSLGDQMSLLQSAWMEILILGIVYRSLPYDDKLVYAEDYIMDEEHSRLAGLLELYRAILQLVRRYKKLKVEKEEFVTLKALALANSDSMYIEDLEAVQKLQDLLHEALQDYELSQRHEEPWRTGKLLLTLPLLRQTAAKAVQHFYSVKLQGKVPMHKLFLEMLEAKV
B7: TRIM26, Q12899 (protein)
chain: MATSAPLRSLEEEVTCSICLDYLRDPVTIDCGHVFCRSCTTDVRPISGSRPVCPLCKKPFKKENIRPVWQLASLVENIERLKVDKGRQPGEVTREQQDAKLCERHREKLHYYCEDDGKLLCVMCRESREHRPHTAVLMEKAAQPHREKILNHLSTLRRDRDKIQGFQAKGEADILAALKKLQDQRQYIVAEFEQGHQFLREREEHLLEQLAKLEQELTEGREKFKSRGVGELARLALVISELEGKAQQPAAELMQDTRDFLNRYPRKKFWVGKPIARVVKKKTGEFSDKLLSLQRGLREFQGKLLRDLEYKTVSVTLDPQSASGYLQLSEDWKCVTYTSLYKSAYLHPQQFDCEPGVLGSKGFTWGKVYWEVEVEREGWSEDEEEGDEEEEGEEEEEEEEAGYGDGYDDWETDEDEESLGDEEEEEEEEEEEVLESCMVGVARDSVKRKGDLSLRPEDGVWALRLSSSGIWANTSPEAELFPALRPRRVGIALDYEGGTVTFTNAESQELIYTFTATFTRRLVPFLWLKWPGTRLLLRP
B8: FERD3L, Q96RJ6 (protein)
chain: MAAYPESCVDTTVLDFVADLSLASPRRPLLCDFAPGVSLGDPALALREGRPRRMARFEEGDPEEEECEVDQGDGEEEEEEERGRGVSLLGRPKRKRVITYAQRQAANIRERKRMFNLNEAFDQLRRKVPTFAYEKRLSRIETLRLAIVYISFMTELLESCEKKESG
B9: BCL6B, Q8N143 (protein)
chain: MGSPAAPEGALGYVREFTRHSSDVLGNLNELRLRGILTDVTLLVGGQPLRAHKAVLIACSGFFYSIFRGRAGVGVDVLSLPGGPEARGFAPLLDFMYTSRLRLSPATAPAVLAAATYLQMEHVVQACHRFIQASYEPLGISLRPLEAEPPTPPTAPPPGSPRRSEGHPDPPTESRSCSQGPPSPASPDPKACNWKKYKYIVLNSQASQAGSLVGERSSGQPCPQARLPSGDEASSSSSSSSSSSEEGPIPGPQSRLSPTAATVQFKCGAPASTPYLLTSQAQDTSGSPSERARPLPGSEFFSCQNCEAVAGCSSGLDSLVPGDEDKPYKCQLCRSSFRYKGNLASHRTVHTGEKPYHCSICGARFNRPANLKTHSRIHSGEKPYKCETCGSRFVQVAHLRAHVLIHTGEKPYPCPTCGTRFRHLQTLKSHVRIHTGEKPYHCDPCGLHFRHKSQLRLHLRQKHGAATNTKVHYHILGGP
B10: POU4F3, Q15319 (protein)
chain: MMAMNSKQPFGMHPVLQEPKFSSLHSGSEAMRRVCLPAPQLQGNIFGSFDESLLARAEALAAVDIVSHGKNHPFKPDATYHTMSSVPCTSTSSTVPISHPAALTSHPHHAVHQGLEGDLLEHISPTLSVSGLGAPEHSVMPAQIHPHHLGAMGHLHQAMGMSHPHTVAPHSAMPACLSDVESDPRELEAFAERFKQRRIKLGVTQADVGAALANLKIPGVGSLSQSTICRFESLTLSHNNMIALKPVLQAWLEEAEAAYREKNSKPELFNGSERKRKRTSIAAPEKRSLEAYFAIQPRPSSEKIAAIAEKLDLKKNVVRVWFCNQRQKQKRMKYSAVH

The target in the assay is nucleoprotein N of Crimean-Congo hemorrhagic fever virus. The experiment in a line: AlphaScreen luminescence signal relative to Venus negative control (fold); higher = stronger binding to CCHFV N. How it is done: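 AlphaScreen binding of cell-free made, FLAG-GST-tagged human transcription factors and regulators (crude translation products) to biotinylated N protein; signal as fold of the FLAG-GST-Venus control. One pass.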
B1 showed an AlphaScreen luminescence signal of 2.6.

As to B2, the AlphaScreen luminescence signal came to 1.95.

Turning to B3, the AlphaScreen luminescence signal came out at 1.49.

As for B4, the AlphaScreen luminescence signal amounted to 2.98.

B5: the AlphaScreen luminescence signal was determined as 3.21.

As to B6, the AlphaScreen luminescence signal was 1.44.

For B7, the AlphaScreen luminescence signal came to 2.51.

Molecule B8 had an AlphaScreen luminescence signal of 1.53.

Consider B9, for which the AlphaScreen luminescence signal is 2.

Regarding B10, the AlphaScreen luminescence signal was found to be 1.81.

Values taken from the supplement of paper PMC12423691.
